According to the supplement of paper PMC10126150:
Sequences with one replicate were seen in a single cluster, so their values are uncertain.

System: ATP
Assay: switch fluorescence ratio, 500 uM ATP over buffer (Cy3 cluster intensity, sum of 5 cycles each) (fold (ratio)); higher = stronger signal-on switching upon ATP binding; sequences stand for … in TCGTCGGCAGCGTCAGATGTGTATAAGAGACAGTTTTTTTTTTTTTTTTTTTTTTTTT…TC
Conditions: aptamer strand: ATP DNA aptamer (quencher-CACCTGGGGGAGTATTGCGGAGGAAGG + anchor), 100 nM annealed; ATP concentration: 500 uM; one replicate
Procedure, shortened: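 Imaging in selection buffer was followed by imaging after 15 min with 500 uM ATP at 22 °C, for Cy3-labelled switching-strand clusters annealed to 100 nM quencher-labelled ATP aptamer on a modified Illumina MiSeq flow-cell. Five of these buffer/ATP cycles ran, separated by NaOH stripping and re-annealing. The fluorescence ratio per cluster is summed target-cycle over summed buffer-cycle Cy3 intensity, averaged per switch-domain sequence; clusters outside 100-1000 RFU were removed.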
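Further: ATP exposure 15 min at 22 °C before imaging.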

| Sequence | switch fluorescence ratio |
| --- | --- |
| TGGTCTCATT | 0.97 |
| TAGCTGGCAT | 1 |
| ACCATTGCC | 1.01 |
| GCTCAAATTG | 0.952 |
| GCCGTCTGAG | 0.995 |
| TCACTCTGAT | 1 |
| TGTTAACAGC | 0.985 |
| GGGTGGTATC | 0.97 |
| TGCATAAGGA | 1.02 |
| GCTTGCAATT | 0.986 |
| TACTTAAAAG | 1.08 |
| CTAAGTGGCG | 0.993 |
| AAGGCCACGA | 1.01 |
| CGTTACAGCA | 1.04 |
| GGTATATCTA | 1 |
| CCGGTATCAG | 1 |
| CTCGGTAGTA | 1.01 |
| TTTATGGTAC | 1.06 |
| CGTTATGTGT | 1.03 |
| TGTGTGTCCT | 1.01 |
| GTTATGGACT | 1.03 |
| TGTCGTTGAG | 1.02 |
| GGTCCGAGGA | 0.954 |

| Sequence | switch fluorescence ratio |
| --- | --- |
| ACGTGCCTTG | 1.02 |
| AACGATGGTC | 1.07 |
| CTTTTAAACG | 0.99 |
| AGATTAAGAC | 1.01 |
| TTCTTTTGAG | 1.01 |
| ATCGTACATC | 1.1 |
| TTTCTGGAAA | 1.04 |
| ATGCAGGTTT | 1.01 |
| AATGGGTTGC | 1 |
| GCATCATGGA | 1.04 |
| GCATTTTGTC | 1 |
| GACGTGAGCT | 1.09 |
| TAAGGTCCGT | 1.02 |
| GGTACTCCCG | 1.31 |
| CGGGAAAGGA | 1 |
| CCTGAGGTAT | 1.02 |
| AACTCTTGCC | 1.03 |
| CGCACTTCAA | 1.09 |
| TAATCGTCCT | 1.07 |
| CAGAATGGTT | 1 |
| GGCGCTGTGT | 0.965 |
| GAGTATCAAA | 1.03 |
| CCAGACCCTA | 1.06 |

| Sequence | switch fluorescence ratio |
| --- | --- |
| TACCCAGGGG | 4.2 |
| GACATACGCC | 1.47 |
| TTTGACGTGG | 0.945 |
| TACTAAAGGG | 1 |
| CTGGGGTCGC | 1.58 |
| AGGGAAGCAT | 1.11 |
| ATCTTTCCAA | 1.02 |
| TATGACGAAA | 1.17 |
| GCTTGCGGCT | 0.968 |
| GCTTTATTAT | 0.994 |
| AAGTTATCG | 0.954 |
| CGGGCTGGTA | 0.962 |
| TGACCTTTA | 1.06 |
| AACAAGGGGT | 1.02 |
| TACGGATGTA | 0.949 |
| TGTGTTCCTA | 0.969 |
| CGATTATGCT | 0.96 |
| TATATGGGCC | 0.989 |
| CCCTCTGGAC | 1.2 |
| CAAAGATGGT | 0.993 |
| TTTTACGTAC | 1.7 |
| CTACTTTTAG | 1.08 |
| TGGCGAAATT | 1.01 |

| Sequence | switch fluorescence ratio |
| --- | --- |
| CCGCTGGACA | 2.07 |
| TAGGGTAACG | 0.94 |
| CAGTTAGGTT | 0.989 |
| CGGAACTATT | 1.01 |
| CGGTCTGCAA | 6.27 |
| GGGGACCGTT | 0.992 |
| ACTTGGGACG | 1.01 |
| GGCCATTCTA | 0.994 |
| CCGCACGGTT | 1.41 |
| CTATATTTTG | 1.01 |
| TCTATATTTT | 0.963 |
| TAAGAATTGT | 1.01 |
| GGTCTTCTG | 1.07 |
| GGGGACTGTT | 0.953 |
| GTATCGACTT | 0.972 |
| TCTAACTATT | 0.961 |
| GACAAAAGAG | 1.08 |
| CAGTCGAGGA | 0.992 |
| CAGGAAATGT | 1.03 |
| CGTATTCAGC | 1.01 |
| ATGCGTTATT | 0.981 |
| GGTTGACGCC | 0.98 |
| TACGGCAGC | 1.07 |

| Sequence | switch fluorescence ratio |
| --- | --- |
| AGCCAAAAGA | 1.03 |
| ATATTGCGCT | 1 |
| CAGCGATAAA | 1.03 |
| TGATTTTTAG | 1.05 |
| GGGGCCAGAG | 1.01 |
| CTCTAAGCAG | 1.2 |
| TGGTGAACCA | 1.01 |
| AGTAGGTGTC | 1.07 |
| TCGCGTCCGT | 1.01 |
| ACGACGGGAA | 1.55 |
| ATAAATGTAA | 0.971 |
| TATTCTATAG | 1.03 |
| TGCGCCTTGG | 1.02 |
| TCGATGACA | 1.04 |
| GCCATGTGTA | 1.03 |
| ATATTCATCG | 1.05 |
| TCAAATGTAT | 1.01 |
| CGAGCGCCCC | 1.11 |
| GTGGGAGCC | 0.981 |
| TATCCTTGTT | 0.978 |
| GTTAAGTCAG | 0.959 |
| TGCCGTAGCT | 1.03 |
| GTGGTTAAA | 1.01 |

| Sequence | switch fluorescence ratio |
| --- | --- |
| GTCCAAAATT | 1.06 |
| GCAAACCGG | 1.04 |
| TTCTTGACGA | 1.02 |
| TTGGGTCCGT | 0.97 |
| CGTTATAATC | 1.09 |
| AAATCTTGTG | 1.01 |
| ATTGGTCCAG | 0.977 |
| TCGTATTCAT | 0.969 |
| AGCGTATCGT | 0.975 |
| TAGTTTTTG | 0.97 |
| GGGCGGGAGA | 0.969 |
| CCAGTGTGG | 1.07 |
| ATAGTATCCC | 1.01 |
| AAAAAGTGTT | 1.05 |
| ACAGTCAAAC | 1.07 |
| AACTTCAGGG | 1.01 |
| AAATCAAGGG | 1.01 |
| TCCTTCATCT | 1.24 |
| CTGGGAGAGG | 0.973 |
| GCGGGTGGTT | 1.03 |
| CAGCCCTGGC | 0.945 |
| CTATAGCCTG | 0.975 |
| CATTCTGTGA | 0.978 |

| Sequence | switch fluorescence ratio |
| --- | --- |
| ATCTACGTAT | 1.16 |
| ATTGGCATCC | 0.99 |
| CGGCCCGAAT | 1.01 |
| ACGATTGCCG | 1.62 |
| CCCGCTCGGA | 1.08 |
| CGAGATAGGG | 1.01 |
| TTTGAACACC | 1.23 |
| TTCGCAGACG | 1.08 |
| ATCGTTAGCT | 1.01 |
| TGATTTCGAT | 0.997 |
| AGCTATAAAA | 1.07 |
| GCCAGCGGTA | 0.969 |
| AATCCGGTAC | 4.64 |
| ACGTTCCAGG | 2.22 |
| ATGCCCCCGT | 1 |
| GGCTTAATTT | 1 |
| CAGAGTAACG | 1 |
| CGGCGATACG | 2.82 |
| CGATTCTAAT | 0.965 |
